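Compound exposure: 48 hours, 5 concentrations, 96-well plates. GI50: concentration for 50% inhibition of growth. TGI: concentration producing complete growth inhibition.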 Some results are limits rather than exact numbers.

Our source for the GI50 and TGI values is PubChem BioAssay (NCI).

The subject of the experiment is NCI-H322M lung. Nature of the experiment: NCI anticancer screen, dose series, 48 h.
For `CC(C)(C)c1cc(-c2cc(-c3ccccc3)[nH]c(=O)c2C#N)cc(C(C)(C)C)c1`, the GI50 was 3.58 µM and the TGI came out at 22.1 µM.

`COC(=O)C(Cc1ccc(O)c(O)c1)NC(=O)C(CSC/C=C(\C)CCCC(C)CCCC(C)CCCC(C)C)NC(C)=O` (stereo unspecified): the GI50 is 34.1 µM and the TGI was > 100 µM.

With `O=C1CCC(N2C(=O)c3cccc(NCCOCCOCCOCCC(=O)NCCCC(=O)NC(c4ccc5c(c4)OCO5)c4cc(Cl)c5cccnc5c4O)c3C2=O)C(=O)C1` (stereo unspecified), the GI50 is 8.23 µM and the TGI was > 99 µM.
